In the antibiotic and cytotoxicity screens of Wong et al. (2023) one finds cytotoxicity call and growth inhibition call data, which are given here for eight compounds.

The test system of one experiment is HSkMC. In words: cytotoxicity call (relative viability < 0.9). The note with it: 10 µM.
The next experiment concerns HepG2. Description: cytotoxicity call (relative viability < 0.9). The note with it: 10 µM.
The test system of the next experiment is S. aureus RN4220. In words: growth inhibition call (relative growth <= 0.2). The note with it: 50 µM.

This is one part of the list.

For the compound `C[C@H]1CN([C@@H](C)CO)C(=O)c2cccc(NC(=O)c3ccc(-c4nccs4)cc3)c2O[C@H]1CN(C)CC1CCCCC1`, the cytotoxicity call in the experiment with HSkMC and in the experiment on HepG2 was “inactive” each time. Further, the growth inhibition call in the experiment with S. aureus RN4220 was “inactive”.

As to `C[C@@H]1CN([C@@H](C)CO)C(=O)c2cccc(NC(=O)C3CCCCC3)c2O[C@H]1CN(C)S(=O)(=O)c1cn(C)cn1`, the cytotoxicity call with HSkMC and in the experiment with HepG2 was “inactive” in each case. The growth inhibition call in the experiment on S. aureus RN4220 is “inactive”.

For `NC(CO)C(=O)O` (centres undefined), the cytotoxicity call in the experiment with HSkMC was “inactive”. Besides, in the experiment with HepG2, the cytotoxicity call is “active”. For the same compound, the growth inhibition call in the experiment on S. aureus RN4220 is “inactive”.

`CN[C@H](CC(C)C)C(=O)N[C@H]1C(=O)N[C@@H](CC(N)=O)C(=O)N[C@H]2C(=O)N[C@H]3C(=O)N[C@H](C(=O)N[C@H](C(=O)O)c4cc(O)cc(O)c4-c4cc3ccc4O)[C@H](O)c3ccc(c(Cl)c3)Oc3cc2cc(c3O[C@@H]2O[C@H](CO)[C@@H](O)[C@H](O)[C@H]2O[C@H]2C[C@](C)(N)[C@H](O)[C@H](C)O2)Oc2ccc(cc2Cl)[C@H]1O`: the cytotoxicity call in the experiment with HSkMC and with HepG2 was “inactive” in each case. Also, the growth inhibition call in the experiment on S. aureus RN4220 is “active”.

Consider `C[C@H]1CCCCO[C@H](CN(C)Cc2ccc(Cl)c(Cl)c2)[C@@H](C)CN([C@@H](C)CO)C(=O)c2cc(NC(=O)NC3CCCCC3)ccc2O1`, for which the cytotoxicity call in the experiment with HSkMC is “active”. Also, in the experiment with HepG2, the cytotoxicity call was “inactive”. The growth inhibition call in the experiment on S. aureus RN4220 is “inactive”.

On to `CC(C)Nc1ncccn1`, for which the cytotoxicity call with HSkMC and with HepG2 was “inactive” throughout. Further, the growth inhibition call in the experiment with S. aureus RN4220 was “inactive”.

Consider `Cc1ccc(S(=O)(=O)N(C)C[C@@H]2Oc3c(NC(=O)C4CCOCC4)cccc3C(=O)N([C@H](C)CO)C[C@H]2C)cc1`, for which the cytotoxicity call in the experiment with HSkMC and in the experiment with HepG2 was “inactive” each time. Besides, the growth inhibition call with S. aureus RN4220 is “inactive”.

On to `COc1ccc(NC(=O)Nc2ccc3c(c2)C(=O)N([C@H](C)CO)C[C@H](C)[C@@H](CN(C)C(=O)Nc2ccc(C(F)(F)F)cc2)O3)cc1`, for which the cytotoxicity call in the experiment on HSkMC (human skeletal muscle cells) and with HepG2 was “inactive” in each case. Moreover, the growth inhibition call with S. aureus RN4220 was “inactive”.
